{"source": "the supplement of paper PMC8728848", "binders": {"B1": {"name": "Lmo1413 (Listeria monocytogenes), Q8Y783 (protein)", "chain": "MKHAKKSLFTFIIFMTILSITFNPFSAKAAPLMLNLPAPQVDQLYIGDDYITGKLQQEVPMHYPGNAAYVLFNNKQYNITDYTVENDVNFRLKLPKTLEAGDTLNYFTITGNVLDPVAYPGQESYKLAGPFSPIEKANIQVNYVDETNQTLATSDTLSGKLGETYTTSPKAIDGYQVKETPTNATGTYTTNTETIQINYVYEKTAVEGANVSVEYINEATNESIAPTETLSGKIGTTFQAEVKEIDGYELSQVPSNQSGTYTDQTQSVIFKYKKITTPDEVAKDVTVTYKDTKGNQLADPVILKGDIGSTFETEAKSFKGYKLTKTPSNHSSVFTSDSQEVEYVYSKDDAVITPPVTPVNPDKPIINPVKPVNPATSTVPNKNISKKNTTKTVNQTGKTSTALQLPKTGDSENNLPLIIGVSLLISGVYIFTTRRKRVK"}}, "test_in_all_cases": "glycan array binding signal (z-score within array); higher = stronger binding", "conditions_in_all_cases": "glycan notation: IUPAC condensed, linker removed", "key": {"Gal(a1-3)GalNAc": {"target": "Gal(a1-3)GalNAc", "outline": "(§1)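 Glycan array data were curated from 3228 arrays in the Consortium for Functional Glycomics database and kept only where the protein sequence was available. Glycan names were converted to IUPAC-condensed notation, and columns mapping to the same glycan were averaged. The binding signal is a within-array Z-score, averaged across arrays of the same protein sequence at different concentrations or buffers and across linkers. Negative Z-scores can be read as non-binding.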"}, "[1]": {"target": "Gal(a1-3)[Gal(a1-4)]Gal(b1-4)GlcNAc", "outline": "as §1"}, "[2]": {"target": "Gal(a1-4)Gal(b1-3)GlcNAc(b1-2)Man(a1-3)[Gal(a1-4)Gal(b1-3)GlcNAc(b1-2)Man(a1-6)]Man(b1-4)GlcNAc(b1-4)GlcNAc", "outline": "as §1"}, "Gal(a1-4)Gal(b1-4)Glc": {"target": "Gal(a1-4)Gal(b1-4)Glc", "outline": "as §1"}, "Gal(a1-4)Gal(b1-4)GlcNAc": {"target": "Gal(a1-4)Gal(b1-4)GlcNAc", "outline": "as §1"}, "[3]": {"target": "Gal(a1-4)Gal(b1-4)GlcNAc(b1-2)Man(a1-3)[Gal(a1-4)Gal(b1-4)GlcNAc(b1-2)Man(a1-6)]Man(b1-4)GlcNAc(b1-4)GlcNAc", "outline": "as §1"}, "[4]": {"target": "Gal(a1-4)Gal(b1-4)GlcNAc(b1-3)Gal(b1-4)Glc", "outline": "as §1"}, "Gal(a1-4)GlcNAc": {"target": "Gal(a1-4)GlcNAc", "outline": "as §1"}, "Gal(a1-6)Glc": {"target": "Gal(a1-6)Glc", "outline": "as §1"}, "Gal(b1-2)Gal": {"target": "Gal(b1-2)Gal", "outline": "as §1"}, "Gal(b1-3)Gal": {"target": "Gal(b1-3)Gal", "outline": "as §1"}, "Gal(b1-3)Gal(b1-4)GlcNAc": {"target": "Gal(b1-3)Gal(b1-4)GlcNAc", "outline": "as §1"}, "[5]": {"target": "Gal(b1-3)Gal(b1-4)GlcNAc(b1-2)Man(a1-3)[Gal(b1-3)Gal(b1-4)GlcNAc(b1-2)Man(a1-6)]Man(b1-4)GlcNAc(b1-4)GlcNAc", "outline": "as §1"}, "Gal(b1-3)GalNAc": {"target": "Gal(b1-3)GalNAc", "outline": "as §1"}, "[6]": {"target": "Gal(b1-3)GalNAc(a1-3)[Fuc(a1-2)]Gal(b1-4)Glc", "outline": "as §1"}, "[7]": {"target": "Gal(b1-3)GalNAc(a1-3)[Fuc(a1-2)]Gal(b1-4)GlcNAc", "outline": "as §1"}, "[8]": {"target": "Gal(b1-3)GalNAc(b1-3)Gal(a1-4)Gal(b1-4)Glc", "outline": "as §1"}, "[9]": {"target": "Gal(b1-3)GalNAc(b1-4)Gal(b1-4)Glc", "outline": "as §1"}, "[10]": {"target": "Gal(b1-3)GalNAc(b1-4)[Neu5Ac(a2-3)]Gal(b1-4)Glc", "outline": "as §1"}, "Gal(b1-3)GlcNAc": {"target": "Gal(b1-3)GlcNAc", "outline": "as §1"}, "[11]": {"target": "Gal(b1-3)GlcNAc(a1-6)Gal(b1-4)GlcNAc", "outline": "as §1"}, "[12]": {"target": "Gal(b1-3)GlcNAc(b1-2)Man(a1-3)[Gal(b1-3)GlcNAc(b1-2)Man(a1-6)]Man(b1-4)GlcNAc(b1-4)GlcNAc", "outline": "as §1"}, "[13]": {"target": "Gal(b1-3)GlcNAc(b1-2)Man(a1-3)[Gal(b1-3)GlcNAc(b1-2)Man(a1-6)]Man(b1-4)GlcNAc(b1-4)[Fuc(a1-6)]GlcNAc", "outline": "as §1"}, "[14]": {"target": "Gal(b1-3)GlcNAc(b1-3)Gal(b1-3)GlcNAc", "outline": "as §1"}, "[15]": {"target": "Gal(b1-3)GlcNAc(b1-3)Gal(b1-4)Glc", "outline": "as §1"}, "[16]": {"target": "Gal(b1-3)GlcNAc(b1-3)Gal(b1-4)GlcNAc", "outline": "as §1"}, "[17]": {"target": "Gal(b1-3)GlcNAc(b1-3)Gal(b1-4)GlcNAc(b1-6)[Gal(b1-3)GlcNAc(b1-3)]Gal(b1-4)Glc", "outline": "as §1"}, "[18]": {"target": "Gal(b1-3)GlcNAc(b1-3)Gal(b1-4)[Fuc(a1-3)]GlcNAc(b1-6)[Gal(b1-3)GlcNAc(b1-3)]Gal(b1-4)Glc", "outline": "as §1"}, "[19]": {"target": "Gal(b1-3)GlcNAc(b1-3)GalNAc", "outline": "as §1"}, "[20]": {"target": "Gal(b1-3)GlcNAc(b1-6)Gal(b1-4)GlcNAc", "outline": "as §1"}, "[21]": {"target": "Gal(b1-3)[Fuc(a1-4)]GlcNAc", "outline": "as §1"}, "[22]": {"target": "Gal(b1-3)[Fuc(a1-4)]GlcNAc(b1-2)Man(a1-3)[Gal(b1-3)[Fuc(a1-4)]GlcNAc(b1-2)Man(a1-6)]Man(b1-4)GlcNAc(b1-4)GlcNAc", "outline": "as §1"}, "[23]": {"target": "Gal(b1-3)[Fuc(a1-4)]GlcNAc(b1-2)Man(a1-3)[Gal(b1-3)[Fuc(a1-4)]GlcNAc(b1-2)Man(a1-6)]Man(b1-4)GlcNAc(b1-4)[Fuc(a1-6)]GlcNAc", "outline": "as §1"}, "[24]": {"target": "Gal(b1-3)[Fuc(a1-4)]GlcNAc(b1-3)Gal(b1-3)[Fuc(a1-4)]GlcNAc", "outline": "as §1"}, "[25]": {"target": "Gal(b1-3)[Fuc(a1-4)]GlcNAc(b1-3)Gal(b1-4)GlcNAc", "outline": "as §1"}, "[26]": {"target": "Gal(b1-3)[Fuc(a1-4)]GlcNAc(b1-3)Gal(b1-4)[Fuc(a1-3)]GlcNAc", "outline": "as §1"}, "[27]": {"target": "Gal(b1-3)[GlcNAc(b1-6)]GalNAc", "outline": "as §1"}}, "note": "The list shows a part of the results."}
{"binder": "B1", "values": [{"measurement": "glycan array binding signal (z-score)", "setting": "Gal(a1-3)GalNAc", "result": -0.056}, {"measurement": "glycan array binding signal (z-score)", "setting": "[1]", "result": -0.048}, {"measurement": "glycan array binding signal (z-score)", "setting": "[2]", "result": -0.15}, {"measurement": "glycan array binding signal (z-score)", "setting": "Gal(a1-4)Gal(b1-4)Glc", "result": -0.213}, {"measurement": "glycan array binding signal (z-score)", "setting": "Gal(a1-4)Gal(b1-4)GlcNAc", "result": -0.023}, {"measurement": "glycan array binding signal (z-score)", "setting": "[3]", "result": -0.139}, {"measurement": "glycan array binding signal (z-score)", "setting": "[4]", "result": 0.081}, {"measurement": "glycan array binding signal (z-score)", "setting": "Gal(a1-4)GlcNAc", "result": 1.25}, {"measurement": "glycan array binding signal (z-score)", "setting": "Gal(a1-6)Glc", "result": -0.157}, {"measurement": "glycan array binding signal (z-score)", "setting": "Gal(b1-2)Gal", "result": -0.099}, {"measurement": "glycan array binding signal (z-score)", "setting": "Gal(b1-3)Gal", "result": 0.145}, {"measurement": "glycan array binding signal (z-score)", "setting": "Gal(b1-3)Gal(b1-4)GlcNAc", "result": 0.732}, {"measurement": "glycan array binding signal (z-score)", "setting": "[5]", "result": -0.25}, {"measurement": "glycan array binding signal (z-score)", "setting": "Gal(b1-3)GalNAc", "result": 0.132}, {"measurement": "glycan array binding signal (z-score)", "setting": "[6]", "result": -0.046}, {"measurement": "glycan array binding signal (z-score)", "setting": "[7]", "result": -0.029}, {"measurement": "glycan array binding signal (z-score)", "setting": "[8]", "result": -0.2}, {"measurement": "glycan array binding signal (z-score)", "setting": "[9]", "result": 0.709}, {"measurement": "glycan array binding signal (z-score)", "setting": "[10]", "result": -0.142}, {"measurement": "glycan array binding signal (z-score)", "setting": "Gal(b1-3)GlcNAc", "result": 0.02}, {"measurement": "glycan array binding signal (z-score)", "setting": "[11]", "result": 0.622}, {"measurement": "glycan array binding signal (z-score)", "setting": "[12]", "result": -0.218}, {"measurement": "glycan array binding signal (z-score)", "setting": "[13]", "result": -0.242}, {"measurement": "glycan array binding signal (z-score)", "setting": "[14]", "result": -0.215}, {"measurement": "glycan array binding signal (z-score)", "setting": "[15]", "result": 0.543}, {"measurement": "glycan array binding signal (z-score)", "setting": "[16]", "result": -0.088}, {"measurement": "glycan array binding signal (z-score)", "setting": "[17]", "result": -0.197}, {"measurement": "glycan array binding signal (z-score)", "setting": "[18]", "result": -0.158}, {"measurement": "glycan array binding signal (z-score)", "setting": "[19]", "result": -0.164}, {"measurement": "glycan array binding signal (z-score)", "setting": "[20]", "result": 0.436}, {"measurement": "glycan array binding signal (z-score)", "setting": "[21]", "result": 0.021}, {"measurement": "glycan array binding signal (z-score)", "setting": "[22]", "result": 1.29}, {"measurement": "glycan array binding signal (z-score)", "setting": "[23]", "result": 0.486}, {"measurement": "glycan array binding signal (z-score)", "setting": "[24]", "result": -0.139}, {"measurement": "glycan array binding signal (z-score)", "setting": "[25]", "result": -0.133}, {"measurement": "glycan array binding signal (z-score)", "setting": "[26]", "result": 0.001}, {"measurement": "glycan array binding signal (z-score)", "setting": "[27]", "result": 0.217}]}
